The experiment relates to NCI-H322M lung. The experiment in a line: NCI tumour cell line growth inhibition, 48 h.

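Cultured in 96-well plates, cells were exposed to test compound for 48 hours across five concentrations. Abbreviation: GI50, concentration required for 50% inhibition of growth. TGI is the concentration that stops growth completely.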

In the case of `CN(C)c1nc(NCCNS(=O)(=O)c2ccc(C3=Nc4c(N)nc(N)nc4NC(c4ccc(Cl)cc4)C3)cc2)nc(Nc2ccc(F)cc2)n1` (stereo not given), the GI50 was greater than 100 µM and the TGI was greater than 100 µM.

Regarding `Cc1ccc(C2CC(c3ccc(NC(=O)Nc4ccccc4)cc3)=NN2c2ccc(S(N)(=O)=O)cc2)cc1` (stereo not given), the GI50 was 8.4 µM and the TGI came to 20.7 µM.

As to `O=C(Nc1ccc(Cl)c(C(F)(F)F)c1)c1cncc(C#Cc2cnc3ccc(N4CCOCC4)nn23)c1`, the GI50 is 2.45 µM and the TGI was 16.9 µM.

As for `OCc1[nH]nc2cc(Nc3ncc4ccc(Br)c(OC5CCC(O)CC5)c4n3)ccc12` (stereo not given), the GI50 is 0.0393 µM and the TGI was 2.06 µM.

Turning to `CC(=C(c1ccc(OCCN2CCCCCC2)cc1)c1ccc(OCCN2CCCCCC2)cc1)c1ccc(Cl)cc1`, the GI50 was 4.91 µM and the TGI was determined as 9.94 µM.

Values taken from PubChem BioAssay (NCI).
